Results reported in the supplement of paper PMC3334620.
Whole data set: some 33,000 sequences, median “E-score (-0.5 to 0.5)” near -0.013, cut for the highest 2% near 0.3. Some of the results follow.

target: T1, Msn1 (UniProt P22148); experiment: PBM E-score (8-mer binding enrichment) (E-score (-0.5 to 0.5)); higher = stronger / more preferred TF binding; most listed sequences are background and not binding sites; settings: protein concentration: 200 nM; construct: GST-full length
T1 sequence: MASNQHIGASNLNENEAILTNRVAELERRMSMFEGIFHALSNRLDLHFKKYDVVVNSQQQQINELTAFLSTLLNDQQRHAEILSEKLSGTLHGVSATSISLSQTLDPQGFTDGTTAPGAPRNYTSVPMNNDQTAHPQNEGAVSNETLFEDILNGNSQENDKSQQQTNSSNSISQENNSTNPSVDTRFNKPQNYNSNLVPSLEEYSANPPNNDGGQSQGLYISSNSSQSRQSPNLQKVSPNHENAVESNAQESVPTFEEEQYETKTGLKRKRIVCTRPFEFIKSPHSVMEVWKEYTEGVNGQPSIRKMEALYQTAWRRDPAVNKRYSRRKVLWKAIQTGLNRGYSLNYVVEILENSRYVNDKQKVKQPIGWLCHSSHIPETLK
How it was run: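 Each ungapped eight-base word and its reverse complement, pooled, received an E-score from the Universal PBM Analysis Suite. Underlying scans, normalised with masliner, recorded fluorescent anti-GST bound to GST-tagged yeast transcription factors. These were applied at about 100-200 nM to universal all-10-mer Agilent arrays double-stranded by primer extension.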

Sequence | PBM E-score
CTGGGATC | -0.158
GCCCGGAA | 0.0421
CAGAATAG | -0.0322
ACGTCCTG | 0.0274
AAACGGAC | 0.0649
GAGCCTGC | -0.0925
CTTAAGAA | 0.153
CTCATTCA | -0.0495
CATTATAC | 0.174
CCAGCCTC | -0.327
ATGAGCCC | -0.227
GCGTTGGA | -0.188
TAAAGCCA | 0.0185
AAGGCGCC | -0.00662
CCAAGTCC | -0.0745
TCATGTCA | 0.252
GAGGCATC | -0.229
AGACAGGA | 0.175
CCGGGGGA | -0.303
ATGCAATG | -0.079
ATCGCTGC | -0.119
AGTTTCGG | 0.0782

Sequence | PBM E-score
GAAACGCC | 0.0413
TGCAGCAA | 0.0669
ACCCTACT | -0.027
AAGGGGCA | -0.207
GGGGTTTA | -0.0517
CAGTTGCC | -0.0967
AAATGGGT | 0.174
ATTATGGA | 0.122
GCACAACC | -0.101
CTGATCTC | -0.0966
CAAATCTC | 0.0618
CAAGCTGA | 0.193
CTTCCTTA | -0.112
GATGTTGA | -0.0623
CCCTGTGC | -0.323
AGCGCTCG | -0.122
ACTCTGGG | -0.0921
TCTGACCA | 0.0211
CCTCGCAC | -0.121
ACAACGAT | 0.0393
CCCTCGGA | 0.158
CAGGCCGA | 0.0449

Sequence | PBM E-score
CGACCCAG | -0.155
CTTCTCAC | -0.198
AGCCGGCG | -0.0742
TCCGTAAA | 0.167
GTAGAGCA | -0.186
ACACGACA | 0.225
AAACGCTC | 0.0143
CGTAGCAC | -0.0105
TCGATGCA | -0.18
GAGAGATC | -0.115
AATTGGGT | 0.164
AAATCGAC | 0.164
ATCGCCCA | -0.179
CTGACGTC | 0.0524
TGATACCA | -0.0663
AGACAAGC | 0.307
CTTCGGAC | 0.285
ACAACCAC | 0.069
CCACCGGA | 0.171
GCGGCGAC | 0.0426
ATCATTGC | 0.0238
ACATGGCT | 0.00755

Sequence | PBM E-score
ATGGATTA | -0.132
AGTTGGTG | -0.125
CCTCATAA | -0.00811
AACAGGGT | -0.179
CCCCTGCC | -0.263
CACGAGTA | 0.0368
AACTACTG | -0.106
GGGGACAA | 0.456
GAATACGA | 0.0634
TCACATGA | -0.0579
ATGGATAG | -0.121
ATAGACAA | 0.41
AGTTGCGC | 0.00674
GGGGGTAA | -0.223
ACAGGGTA | -0.0164
GGGGGGGA | -0.349
AAGTAACG | 0.184
AAGTTAGT | 0.151
GATGAGGA | -0.149
AGGCGTTC | -0.25
GTATGAAA | 0.111
TATAGACA | 0.405

Sequence | PBM E-score
ATTCGAGC | -0.087
GGATTGAA | 0.108
CGCTGCCA | -0.206
ACGTTTAT | 0.0184
AGCAGACG | 0.0267
GTCTTTGA | 0.0824
CCACGATC | 0.0204
CCTGCGGA | 0.00937
CAACATCA | 0.137
TAGGTACA | 0.291
CTCAAGTA | 0.0201
ACCCCCCC | -0.367
ACCCCGGC | -0.197
CAGATACA | 0.258
GATAACGC | 0.098
AGGCCAGC | -0.215
CGATAACG | 0.0964
ACCAAAAT | -0.0821
CATGCATC | 0.0333
ACACTCCG | 0.0416
CAGAGTGA | -0.0608
